“Also recorded” adds a separate entry of the source. Like-named read-outs stand apart in the source and are kept apart here.
What was measured:
[1] = system: human CD45, cyno CD45 and rhesus CD45; assay: CD45 binding / species cross-reactivity of antibodies; design: species or system cynomolgus
[2] = rhesus; single IV infusion 0.1, 0.3 and 0.6 mg/kg, any dose
Method: Rhesus macaques were treated with a single dose of anti-CD45-ADC at 0.1, 0.3, or 0.6 mg/kg. Control groups received PBS. Samples were collected at days 4, 7, 21, and 28 for flow cytometry analysis (FIG. 9A). […] Clinical pathology was further assessed in rhesus macaques treated with a single IV infusion of anti-CD45-ADC at 0.1, 0.3, and 0.6 mg/kg.

[3] = system: recurrent angioimmunoblastic T-cell lymphoma patient-derived xenograft; assay: PDX model of recurrent angioimmunoblastic T-cell lymphoma, survival; type: in vivo, mice; details: single dose 3 mg/kg at ~10% tumor in peripheral blood, around day 27
Method: Anti-CD45-ADC was further tested in a PDX model of recurrent angioimmunoblastic T-cell lymphoma. A single dose of anti-CD45-ADC (Ab5-DGN549) was administered to a group of mice when tumor levels reached ˜10% in peripheral blood, around day 27. Control groups received either PBS, isotype-ADC, CD45 mAb, ARA-C at 30 mg/kg QDx5, or Dexamethasone at 5 mg/kg Q3Dx10. Long-term disease survival was monitored.

[4] = system: human HSCs and immune cells; assay: HSC and immune cell depletion in humanized mice; type: in vivo, humanized NSG mice; details: single dose 1 mg/kg
Method: Humanized mice were treated with a single dose of an anti-CD45-ADC at a dose of 1 mg/kg. Peripheral blood samples were assessed at days 7 and 14 post-treatment and bone marrow was assessed at day 14 post-treatment (FIG. 3A).
(§1) The anti-malignancy activity was assessed in a patient-derived xenograft (PDX) model of relapsed/refractory acute myeloid leukemia (AML).

[5] = cynomolgus
Method: (§2) Cynomolgus monkeys were treated with a single dose of anti-CD45-ADC (Ab5-DGN549) at various doses ranging from 0.05 to 0.6 mg/kg. Control groups received either PBS or isotype-ADC. Samples were collected at days 4, 7, 14, and 28 for flow cytometry analysis (FIG. 6A).

HSCs and immune cells [6] = assay: HSC depletion and immune cell function in rhesus macaques; type: in vivo
Text: Control groups received PBS.

GFP+ gene modified HSCs = assay: Immunogenic GFP+ model, chimerism in blood after conditioning; type: in vivo, macaques; details: day 111; ~40% theoretical maximum chimerism
Method: Using an immunogenic GFP+ model, chimerism in blood was assessed following conditioning with anti-CD45-ADC. […] Engraftment was performed using gene modified HSCs that contained tracer DNA in order to study the lineage of the cells.

[7] = system: Human HSCs (CD34 + CD90+); details: read-out: Cytotoxicity (IC90), in vitro
[8] = system: erythroid-specific BCL11A enhancer-edited CD34+ cells; assay: Conditioning and engraftment of BCL11A enhancer-edited CD34+ cells in rhesus macaques; type: in vivo
Method: Rhesus macaques were treated with a single dose of anti-CD45-ADC (Ab5-DGN549) at either 0.2 or 0.3 mg/kg followed by engraftment of erythroid-specific BCL11A enhancer-edited CD34+ cells.
For transplant studies, rhesus macaque CD34+ HSPCs were electroporated with 3×NLS SpCas9 protein and two RNAs targeting the +55 and +58 BCL11A erythroid enhancers.
A similar experiment was performed in Rhesus macaques. Rhesus macaques were treated with either 0.2 or 0.3 mg/kg of an anti-CD45-ADC as a single IV bolus. At day 10, the macaques underwent an HSC transplant with autologous gene-edited BCL11a enhancer −/− cells, and were monitored over time (FIG. 15A). A cohort of macaques were treated with Busulfan (5.5-6 mg/kg QDx4) as a control.
Two additional rhesus macaques were conditioned with 0.2 mg/kg anti-CD45 ADC and infused with autologous HSPCs transduced with a barcoded lentiviral vector.

HSCs and immune function = assay: Minimum efficacious dose for HSC + immune cell depletion in NHP; type: in vivo
REH Leukemia Cell Line = details: read-out: Cytotoxicity (IC90), in vitro
HSCs and immune cells [9] = assay: HSC and immune cell depletion in cynomolgus monkeys; type: in vivo
Method: as §2
An additional experiment using Cynomolgus monkeys was performed, with an identical setup as described above (FIG. 8A). The anti-CD45-ADC was administered as a single dose at concentrations ranging from 0.05 to 0.6 mg/kg. Busulfan (administered at 6 mg/kg, QDx4) was utilized as a control.

[10] = system: autologous HSPCs transduced with a barcoded lentiviral vector; assay: Clonality after infusion of barcoded lentiviral vector transduced autologous HSPCs; type: in vivo, rhesus macaques; details: rhesus; 0.2 mg/kg; four to eight months after infusion
Method: At 0.2 mg/kg anti-CD45 ADC (n=1), editing reached 62% of target alleles among short-lived granulocytes, reflecting the HSC compartment, with a follow up of 72 weeks to date. […] Editing in other lineages including monocytes, NK cells, B cells, erythroid precursors and CD34+ HPSCs ranged from 79-93% for the animals given 0.3 mg/kg anti-CD45 ADC and 34-63% for the animal given 0.2 mg/kg anti-CD45 ADC. At 16-69 week post-transplantation, T cell editing was 14-21% following anti-CD45 ADC conditioning (8-31% for busulfan treated animals at 25-34 weeks). Two additional rhesus macaques were conditioned with 0.2 mg/kg anti-CD45 ADC and infused with autologous HSPCs transduced with a barcoded lentiviral vector.

[11] = system: relapsed/refractory acute myeloid leukemia (AML) patient-derived xenograft; assay: PDX model of relapsed/refractory AML, survival; type: in vivo, mice; details: R/R AML PDX
Method: Anti-malignancy activity of an anti-CD45-ADC was assessed using a patient-derived xenograft (PDX) model of relapsed/refractory acute myeloid leukemia (AML). A single dose of anti-CD45-ADC (Ab5-DGN549) was administered to a group of mice when tumor levels reached ˜10% in peripheral blood, around day 24. Control groups received either PBS, isotype-ADC, CD45 mAb, or ARA-C at 30 mg/kg QDx5. Long-term, disease-free survival was monitored.
as §1

[12] = cynomolgus, single dose 0.05 to 0.6 mg/kg

B1: Ab5: human anti-CD45 antibody, VH SEQ ID NO:41, VL SEQ ID NO:45; heavy chain SEQ ID NO:49, light chain SEQ ID NO:50 (antibody)
heavy: EVQLVESGGGLVQPGGSLRLSCAASGFTFEAYSMNWVRQAPGKGLEWVSYISLSGATIHYADSVKGRFTISRDNAKNSLYLQMNSLRAEDTAVYYCARGGQYYYTSSDYGEVAFDIWGQGTMVTVSSASTKGPSVFPLAPSSKSTSGGTAALGCLVKDYFPEPVTVSWNSGALTSGVHTFPAVLQSSGLYSLSSVVTVPSSSLGTQTYICNVNHKPSNTKVDKKV[not shown - human IgG1 Fc with L234A L235A D265C H435A (EU numbers)]
light: DIVMTQSPLSLPVTPGEPASISCRSSQSLVSSGYNYLDWYLQKPGQSPQLLIYFGSSRASGVPDRFSGSGSGTDFTLKISRVEAEDVGVYYCMQRRRTPWSFGGGTKVEIKRTVAAPSVFIFPPSDEQLKSGTASVVCLLNNFYPREAKVQWKVDNALQSGNSQESVTEQDSKDSTYSLSSTLTLSKADYEKHKVYACEVTHQGLSSPVTKSFNRGEC
- cross-reactivity with CD45 of species (in words) [1]: cross reacts with human CD45, cyno CD45 and rhesus CD45

B2: anti-CD45-ADC: anti-CD45 Ab5 conjugated to DGN-549 via cysteines at amino acid 265 in the Fc region, protease-cleavable linker (conjugate)
heavy: B1 heavy
light: B1 light
- changes in ALP [2]: no changes
- changes in ALT [2]: no changes
- changes in AST [2]: no changes
- changes in TBIL [2]: no changes
- median survival [3]: 103 days
- depletion of human HSCs and immune cells in bone marrow and peripheral blood ([4]; n=5/group): > 95%
- depletion of immune cell types in bone marrow ([4]; bone marrow day 14): > 95%
- depletion of human HSCs and peripheral cells ([4]; peripheral blood days 7 and 14, bone marrow day 14): > 95%
- t1/2 ([5]; 0.2 mg/kg): < 1.2 h
- in vivo clearance (in words) ([5]; infusion or bolus, various doses): rapid in vivo clearance
- IC90 (Human PBMCs; read-out: Cytotoxicity (IC90), in vitro): 5.9 ± 1.2 pM
- IC90 (Human PBMCs; read-out: Cytotoxicity (IC90), in vitro, listed as CD45-ADC): 5.8 ± 1.2 pM
- depletion of immune cell function in peripheral blood (HSCs and immune cells [6]; doses >0.3 mg/kg): > 90%
- depletion of HSCs (HSCs and immune cells [6]; single dose >0.3 mg/kg, 7 days post-administration): greater than 95%
- lymphoid chimerism (GFP+ gene modified HSCs): ~24%
- myeloid chimerism (GFP+ gene modified HSCs): ~35%
- IC90 [7]: 6.6 ± 5.9 pM
- editing in other lineages (monocytes, NK cells, B cells, erythroid precursors, CD34+ HPSCs) ([8]; 0.2 mg/kg): 34-63%
- editing of target alleles among granulocytes ([8]; 0.2 mg/kg (n=1), follow up of 72 weeks): 62%
- engraftment of the edited cells ([8]; 0.2 mg/kg single dose, week 50): ~60%
- editing in other lineages (monocytes, NK cells, B cells, erythroid precursors, CD34+ HPSCs) ([8]; 0.3 mg/kg): 79-93%
- engraftment level compared to myeloablative Busulfan (in words) ([8]; 0.3 mg/kg): comparable to that of the myeloablative Busulfan; also recorded: comparable results as to the myeloablative Busulfan
- granulocyte editing ([8]; 0.3 mg/kg (n=2), stable through 24 and 32 weeks): 82-84%
- F-cell levels ([8]; 0.3 mg/kg animals, week 10-13): 80-93%
- γ-globin expression ([8]; 0.3 mg/kg animals, week 10-13): 67-82%
- engraftment of the edited cells ([8]; 0.3 mg/kg single dose, by week 10): ~85%
- induction of F-cells (in words) ([8]; 0.2 and 0.3 mg/kg): robust induction of levels of F-cells
- engraftment of edited cells (in words) ([8]; 0.2 or 0.3 mg/kg single IV bolus, transplant at day 10): enabled engraftment of edited cells at all doses tested
- fetal hemoglobin (HbF) induction (in words) ([8]; 0.2 or 0.3 mg/kg, HbF-positive cells / F-cells and γ-globin): robust hemoglobin F (HbF) induction; also recorded: robust fetal hemoglobin induction
- T cell editing ([8]; 16-69 week post-transplantation): 14-21%
- edited cell engraftment ([8]; single dose of 0.2 or 0.3 mg/kg): 60-80%
- AUC (HSCs and immune function; 0.15 mg/kg): 0.92 µg·h/mL
- HSC depletion (HSCs and immune function; 0.15 mg/kg): 99%
- reduction in functional T-cells (inability to divide ex vivo) (HSCs and immune function; 0.15 mg/kg): 97%
- minimum efficacious dose (MED) (HSCs and immune function; dose giving >95% depletion of HSCs and immune function): 0.15 mg/kg
- IC90 (REH Leukemia Cell Line): 8.5 ± 4.3 pM
- depletion of bone marrow HSCs (in words, FIG. 14A) (HSCs and immune cells [9]; cynomolgus macaques): robust depletion of bone marrow HSCs
- ability of T cells to divide ex vivo (in words) (HSCs and immune cells [9]; cynomolgus, day 3): reduce the ability for T cells to divide ex vivo
- reduction of HSCs compared to Busulfan (in words) (HSCs and immune cells [9]; cynomolgus, doses >0.1 mg/kg, Busulfan 6 mg/kg QDx4): comparable reduction of HSCs as compared to the myeloablative Busulfan
- depletion of immune cell function in peripheral blood (HSCs and immune cells [9]; cynomolgus, doses >0.2 mg/kg): > 90%
- peripheral T cells recovery (in words) (HSCs and immune cells [9]; cynomolgus, lowest dose 0.05 mg/kg): return to pre-dose levels
- peripheral B cells after administration (in words) (HSCs and immune cells [9]; [12]): reduction of peripheral B cells
- peripheral T cells after administration (in words) (HSCs and immune cells [9]; [12]): initially reduced
- HSCs in bone marrow relative to baseline (in words) (HSCs and immune cells [9]; cynomolgus, single dose 0.05 to 0.6 mg/kg, all doses, days 6 or 7 post-dose): depleted HSCs in bone marrow
- peripheral immune depletion (in words) (HSCs and immune cells [9]; cynomolgus, single dose >0.15 mg/kg, 7 days post administration, n=3-6 animals/dose group): broad peripheral immune depletion
- clonality of engraftment (in words) [10]: highly polyclonal
- median survival ([11]; single dose 3 mg/kg at ~10% tumor in peripheral blood, around day 24): > 332 days
- median survival (long-term disease-free survival) ([11]; single dose, n=5-8 mice/group): > 330 days
